The results in this text go back to publication PMC4336329 (PLoS ONE, 2015).

The campaign covered roughly 310,000 compounds. About 2,200 (0.71%) showed an effect of 50% or more. Effects have a minus sign here. The list shows a part of the results.

human ether-à-go-go-related gene (hERG) potassium channel, sequence (Q12809 whole entry, looked up): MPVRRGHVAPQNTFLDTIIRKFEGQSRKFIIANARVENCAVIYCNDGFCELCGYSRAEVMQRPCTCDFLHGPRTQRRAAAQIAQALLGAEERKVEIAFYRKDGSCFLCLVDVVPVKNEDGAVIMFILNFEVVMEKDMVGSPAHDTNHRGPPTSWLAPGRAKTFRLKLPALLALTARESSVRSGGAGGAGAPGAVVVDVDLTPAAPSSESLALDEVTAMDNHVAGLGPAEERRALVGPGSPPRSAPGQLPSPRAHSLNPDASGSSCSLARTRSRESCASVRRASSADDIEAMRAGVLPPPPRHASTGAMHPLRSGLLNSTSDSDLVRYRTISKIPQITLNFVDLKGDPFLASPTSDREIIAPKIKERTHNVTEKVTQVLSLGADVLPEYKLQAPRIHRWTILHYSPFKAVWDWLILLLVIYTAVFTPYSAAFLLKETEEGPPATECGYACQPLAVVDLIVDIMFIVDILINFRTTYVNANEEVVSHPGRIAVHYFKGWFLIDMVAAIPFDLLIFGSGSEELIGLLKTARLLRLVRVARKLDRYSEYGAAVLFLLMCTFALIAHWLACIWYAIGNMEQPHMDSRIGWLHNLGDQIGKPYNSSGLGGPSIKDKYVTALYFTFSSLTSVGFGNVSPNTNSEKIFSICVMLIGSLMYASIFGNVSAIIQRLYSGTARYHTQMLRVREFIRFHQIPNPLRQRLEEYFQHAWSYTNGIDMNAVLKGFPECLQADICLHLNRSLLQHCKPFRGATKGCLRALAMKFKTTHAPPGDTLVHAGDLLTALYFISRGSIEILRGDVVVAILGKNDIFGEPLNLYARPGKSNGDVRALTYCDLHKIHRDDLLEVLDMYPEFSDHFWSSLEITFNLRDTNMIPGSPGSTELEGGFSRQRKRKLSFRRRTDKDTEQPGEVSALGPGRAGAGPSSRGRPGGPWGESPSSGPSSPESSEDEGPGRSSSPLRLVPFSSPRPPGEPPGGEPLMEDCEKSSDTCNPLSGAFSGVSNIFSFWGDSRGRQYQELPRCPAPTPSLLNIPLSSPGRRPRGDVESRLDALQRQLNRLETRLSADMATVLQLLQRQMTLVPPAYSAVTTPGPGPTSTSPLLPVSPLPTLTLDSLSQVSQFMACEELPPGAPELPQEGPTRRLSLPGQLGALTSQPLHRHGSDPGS

This experiment concerns the target human ether-à-go-go-related gene (hERG) potassium channel (human, UniProt Q12809). The experiment in a line: primary screen, population patch clamp on CHO cells stably expressing hERG.
As to `N#Cc1ccc(OCC(=O)N2CCN(C(=O)c3ccco3)CC2)cc1`, the “hERG current change (%, negative = inhibition) at 1uM” value was -40.2%. The same measure for `Cl.c1ccc(C2CN3CCSC3=N2)cc1` (stereo not drawn): 11.7%. On to `CC(=O)c1cccc(NC(=O)c2ccc(S(=O)(=O)N3CCCCC3)cc2)c1`, for which the “hERG current change (%, negative = inhibition) at 1uM” value is recorded as 5.02%. With `O=C(c1ccoc1)N1CCCC(N2CCN(c3ccc(F)cc3)CC2)C1` (stereo not drawn), the “hERG current change (%, negative = inhibition) at 1uM” value is on record as -1.93%. With `CCOc1ccc(OCCC(=O)Nc2ccc(F)cc2C)cc1` the figure was 10.3%.

For the molecule `COc1ccc(CNC(=S)Nc2cccc(Cl)c2)cc1`, the “hERG current change (%, negative = inhibition) at 1uM” value was determined as 10.9%. For the molecule `Cc1ccc(C)n1CCN1CCN(CC(=O)Nc2ccc(S(N)(=O)=O)cc2)CC1`, the “hERG current change (%, negative = inhibition) at 1uM” value stood at 4.32%. The same measure for `COc1ccc(OC)c(CNc2ccc3c(c2)nc(C)n3C)c1`: -8.17%. For the molecule `Cc1ccc(OCC(=O)c2c[nH]c3ccccc23)c([N+](=O)[O-])n1`, the “hERG current change (%, negative = inhibition) at 1uM” value is 19.6%. Take `O=C(CSC1=NCCS1)Nc1cccc(F)c1`: the “hERG current change (%, negative = inhibition) at 1uM” value is on record as 6.9%. With `CCN(Cc1cnn(C)c1)C(=O)c1ccc(OC2CCN(S(=O)(=O)N(C)C)CC2)cc1`, the “hERG current change (%, negative = inhibition) at 1uM” value worked out at 11.5%.

With `CCn1c2ccccc2c2cc(N=C3SC(CC(=O)Nc4ccccc4)C(=O)N3C)ccc21` (stereo not drawn), the “hERG current change (%, negative = inhibition) at 1uM” value amounted to 16.2%.

Turning to `COc1ccc(C(=O)O)cc1S(=O)(=O)NCc1ccccn1`, the “hERG current change (%, negative = inhibition) at 1uM” value was found to be 9.89%. Consider `COc1ccc(Cl)cc1NC(=O)COC(=O)CNC(=O)c1ccc([N+](=O)[O-])c(C)c1`, for which the “hERG current change (%, negative = inhibition) at 1uM” value is 12%.

Regarding `C=CCn1c(SC(C)CC)nc(O)cc1=O` (stereo not drawn), the “hERG current change (%, negative = inhibition) at 1uM” value was determined as 13%.

With `CCN(c1ccc(C(O)(C(=O)OC)C(F)(F)F)cc1)S(=O)(=O)c1ccc(C)cc1` (stereo not drawn), the “hERG current change (%, negative = inhibition) at 1uM” value was -9.81%. With `O=C(NN=C1CCCC1)c1cccc(O)c1`, the “hERG current change (%, negative = inhibition) at 1uM” value is on record as 6.66%. With `Cc1nc(N(C)C)c2sc(=S)n(-c3ccccc3)c2n1` the figure was 16.9%.

Turning to `CC(C)C[C@H](NC(=O)OC(C)(C)C)c1n[nH]c(=S)n1N`, the “hERG current change (%, negative = inhibition) at 1uM” value is listed as 17.9%.

On to `CC(CN1CCCCC1)NC(=O)c1cc(-c2ccccn2)nc2ccc(Cl)cc12` (stereo not drawn), for which the “hERG current change (%, negative = inhibition) at 1uM” value was found to be 0.196%. The same measure for `COc1ccc2nc(C)cc(N3CC(C)OC(C)C3)c2c1` (stereo not drawn): -12.8%; for `Cc1c(C#N)c2ncnc(-c3ccccc3)c2n1-c1ccccc1`: 7.29%.

As to `CCN(CC)S(=O)(=O)c1ccc(N2CCCC2)c(NC(=O)c2nn(C)c(=O)c3ccccc23)c1`, the “hERG current change (%, negative = inhibition) at 1uM” value is 1.74%. Consider `Cc1onc(-c2c(F)cccc2Cl)c1C(=O)NC1=NCCS1`, for which the “hERG current change (%, negative = inhibition) at 1uM” value is on record as -3.9%. On to `O=c1c2cc(Br)ccc2nc(-c2ccccc2)n1O`, for which the “hERG current change (%, negative = inhibition) at 1uM” value is 22.3%. Turning to `O=C(O)CCCn1nc(-c2ccccc2)c2ccccc21`, the “hERG current change (%, negative = inhibition) at 1uM” value is given as 10.7%. In the case of `C/C(=N\NC(=S)Nc1ccccc1)C1Cc2ccccc2C(=O)O1` (stereo not drawn), the “hERG current change (%, negative = inhibition) at 1uM” value came out at 5.98%. In the case of `Cn1cc(C(=O)c2ccc(Cl)cc2Cl)cc1C(=O)O`, the “hERG current change (%, negative = inhibition) at 1uM” value is recorded as 14.2%. As to `CC(=O)N(c1ccccc1Cl)S(=O)(=O)c1ccc(Cl)cc1`, the “hERG current change (%, negative = inhibition) at 1uM” value is 19.7%. The same measure for `CSc1ccc(CNc2nnnn2C)cc1`: -0.772%; for `CC(C)CC(c1nnnn1CC1CCCO1)N1CCN(Cc2ccc3c(c2)OCO3)CC1.Cl` (stereo not drawn): 1.27%.

Consider `O=C(O)c1cc2ccccc2cc1Nc1ccccc1`, for which the “hERG current change (%, negative = inhibition) at 1uM” value was found to be 6.84%. With `Cc1ccccc1Cn1cc(NC(=O)c2cc(-c3ccco3)on2)cn1` the figure was 3.58%; with `CCOC(=O)C1C(c2ccc(O)c(O)c2)NC(=S)NC1(O)C(F)(F)F` (stereo not drawn), -6.08%.

As for `COc1cccc(-n2nnc3c(=O)n(CC(=O)OCc4ccccc4)cnc32)c1`, the “hERG current change (%, negative = inhibition) at 1uM” value came out at 17.5%. `C/C(=N\NC(=O)c1cc(-c2ccncc2)nc2ccccc12)c1ccc(N2CCOCC2)cc1`: the “hERG current change (%, negative = inhibition) at 1uM” value was 10.3%. With `Cc1ccccc1-c1nc(CN2CCC(C(=O)NCc3cccnc3)CC2)c(C)o1` the figure was -0.546%. Take `CCCCNC(=O)CCCCCn1c(=O)[nH]c2cc(OC)c(OC)cc2c1=O`: the “hERG current change (%, negative = inhibition) at 1uM” value is on record as 16.5%. As to `CCN1CCN(C(=S)c2ccc([N+](=O)[O-])cc2)CC1`, the “hERG current change (%, negative = inhibition) at 1uM” value was -0.224%.

Take `CSc1ncccc1C(=O)N(C)CC(=O)Nc1ccc(Cl)c(C(F)(F)F)c1`: the “hERG current change (%, negative = inhibition) at 1uM” value came to 2.77%. With `O=C(c1ccccc1F)N1CCN(C(=O)C(c2ccccc2)c2ccccc2)CC1` the figure was 7.62%; with `COc1cc(O)c(C(CCN2CCOCC2)c2cc(OC)c(OC)c(OC)c2)c(OC)c1` (stereo not drawn), 9.63%. For `O=C(CCN1CCN(Cc2ccccc2)CC1)NNC(=O)Nc1cccc([N+](=O)[O-])c1`, the “hERG current change (%, negative = inhibition) at 1uM” value is given as 10.4%. Take `O=C(CSc1nc(-c2ccco2)cc(C(F)(F)F)n1)N1CCN(Cc2ccccc2)CC1`: the “hERG current change (%, negative = inhibition) at 1uM” value stood at 0.0739%. As to `COc1cc(/C=C2/SC(=O)N(CC(=O)N3CCCC3)C2=O)ccc1Oc1ccc([N+](=O)[O-])cn1`, the “hERG current change (%, negative = inhibition) at 1uM” value is recorded as 7.76%.

For the molecule `Cl.O=C(NC1CCCCC1)NC1CCN(CC(=O)N2CCOCC2)CC1`, the “hERG current change (%, negative = inhibition) at 1uM” value came to 16.9%. The same measure for `Cc1cc(C)c(NC(=O)CNC(=O)Cc2ccc(S(=O)(=O)N3CCOCC3)s2)c(C)c1`: 11.8%; for `CC1=CC(C)(C)N(C(=O)CSc2ncn[nH]2)c2ccccc21`: 8.74%. The same measure for `Cc1ccc(CNC(=O)CN2C(=O)CSc3ccc(S(=O)(=O)N4CCCCC4)cc32)cc1`: 8.32%; for `CCCc1cc(=O)[nH]c(SCC(=O)N2CCN(S(=O)(=O)c3ccc(Cl)cc3)CC2)n1`: 7.69%; for `CC1(OC(=O)CCc2ccccc2)C(=O)C=C2C=C(c3ccc(C#N)cc3)N(c3ccccc3)C=C2C1=O` (stereo not drawn): 11.7%. In the case of `C=CCSc1nc(=O)n2ccccc2n1`, the “hERG current change (%, negative = inhibition) at 1uM” value is 15.4%. In the case of `COc1cccc(-c2cc(C(=O)Nc3nc4ccccc4s3)c3ccccc3n2)c1`, the “hERG current change (%, negative = inhibition) at 1uM” value is -7.44%. As to `CC(C)(C)OC(=O)[C@H](Cc1ccccc1)NC(=O)c1nc[nH]c1C(=O)NCC(=O)OCc1ccccc1`, the “hERG current change (%, negative = inhibition) at 1uM” value is 8.94%. With `CCCN1C(=O)CC(C(=O)OC)=C1C`, the “hERG current change (%, negative = inhibition) at 1uM” value turned out to be 12.5%.

As to `COc1cc(/C=C/C(=O)OCC(=O)Nc2ccc3c(c2)OCCO3)ccc1O`, the “hERG current change (%, negative = inhibition) at 1uM” value was 7.33%. As for `COC(=O)[C@@]1(Cc2ccc(F)cc2)[C@@H]2[C@@H](CC(=O)[C@H]2CC(=O)C(=O)N(C)C)CN1C(=O)c1ccccc1`, the “hERG current change (%, negative = inhibition) at 1uM” value was -0.408%. Take `CCOc1ccc(NC(=O)CN(C)C(=O)c2ccccc2OCc2c(C)noc2C)cc1OCC`: the “hERG current change (%, negative = inhibition) at 1uM” value is on record as 14.6%. As to `CC(C)CCn1c(N2CCc3ccccc3C2)nc2c1c(=O)[nH]c(=O)n2C`, the “hERG current change (%, negative = inhibition) at 1uM” value was 8.85%. Take `CCOC(=O)c1c(-c2ccc(OC)cc2)csc1NC(=O)CCN1C(=O)c2ccccc2C1=O`: the “hERG current change (%, negative = inhibition) at 1uM” value stood at 8.98%. With `CCc1nc(SCC(=O)Nc2ccccc2Cl)n[nH]1` the figure was 12.7%; with `CS(=O)(=O)N1CCc2cc(C(=O)N3CCOCC3)ccc21`, 11.8%. The same measure for `Cc1cccc(OCCOCCN2CCNCC2)c1C.O=C(O)C(=O)O`: -0.5%; for `CCOC(=O)c1c(C)oc2ccc(OC(=O)c3cccs3)cc12`: -11.6%; for `COc1cc(OC)cc(C(=O)Nc2cccnc2)c1`: 4.39%. With `OC(CCN1CCOCC1)c1ccccc1` (stereo not drawn) the figure was 4.74%; with `Nc1nonc1-c1nc2ccccc2n1CC(=O)N/N=C/c1ccc(-c2ccccc2C(=O)O)o1`, 11.9%; with `O=C(O)CNS(=O)(=O)c1c(Cl)cccc1Cl`, 14.5%. Regarding `O=C(NCc1n[nH]c(=S)n1-c1ccc(Br)cc1)c1ccc(S(=O)(=O)N2CCCC2)cc1`, the “hERG current change (%, negative = inhibition) at 1uM” value worked out at 13.3%.

Consider `O=C1NC(=O)N(c2cccc(Cl)c2)C(=O)/C1=C\c1ccc(Sc2nc3ccccc3[nH]2)o1`, for which the “hERG current change (%, negative = inhibition) at 1uM” value was found to be 10.1%. Consider `CC(=O)c1ccc(N2CCN(C(=O)Nc3ccc(F)cc3)CC2)cc1`, for which the “hERG current change (%, negative = inhibition) at 1uM” value is -2%.

Turning to `COc1ccc(-c2nnc(SCC(=O)NC(=O)NCc3ccco3)o2)cc1`, the “hERG current change (%, negative = inhibition) at 1uM” value is 11.7%. The same measure for `CCCN(CC(=O)Nc1ccccc1OC)C(=O)Cc1ccc2c(c1)CCC2`: 4.36%. As to `O=C(CSc1nc2ccccc2s1)N1c2ccccc2Sc2ccc(C(F)(F)F)cc21`, the “hERG current change (%, negative = inhibition) at 1uM” value amounted to 5.36%. The same measure for `CCc1ccc2nc(SCC(=O)N(CC)CC)c(C#N)cc2c1`: -1.58%; for `CC(=O)c1c(O)c2ccccc2n(C)c1=O`: 17%; for `Cc1nc2c(Br)c(C)nn2c2c1CCC2`: 14.8%. As for `CCOC(=O)c1cn2nc(N3CCCCC3)ccc2n1`, the “hERG current change (%, negative = inhibition) at 1uM” value is on record as 4.77%.

Consider `COc1cccc(-c2csc3nc[nH]c(=O)c23)c1`, for which the “hERG current change (%, negative = inhibition) at 1uM” value is 12.9%. With `Cc1cccc(NC(=S)N=Nc2c(O)n(C)c3ccc(S(=O)(=O)N4CCOCC4)cc23)c1`, the “hERG current change (%, negative = inhibition) at 1uM” value was found to be 0.0603%.

As to `N#Cc1cc(N)ccc1Sc1ccc(Cl)cc1`, the “hERG current change (%, negative = inhibition) at 1uM” value is listed as 15.8%. For `COc1cc(C)ccc1OCCOCCOc1ccccc1[N+](=O)[O-]`, the “hERG current change (%, negative = inhibition) at 1uM” value is -6.33%. The same measure for `CCN(CC(=O)Nc1ccc(NC(C)=O)cc1)C(=O)c1cccc(S(=O)(=O)N2c3ccccc3CC2C)c1` (stereo not drawn): 0.214%; for `CCN(CC(=O)NCc1ccc(Cl)cc1)C(=O)/C=C/c1cc(OC)c(OC)c(OC)c1`: 11.2%. For `Cn1c(C(=O)N2CCN(C(=O)c3ccco3)CC2)cc2c(=O)n(C)c3ccccc3c21`, the “hERG current change (%, negative = inhibition) at 1uM” value was -1.12%. The same measure for `COc1ccc(C)cc1N(CC(=O)N1CCCC1)S(C)(=O)=O`: 9.85%; for `O=C(Oc1ccc([N+](=O)[O-])cc1)c1ccc2ccccc2n1`: 7.68%.
